# Results from patent publication US7514257B2, “Zinc finger transcription factor differentiation proteins” (ToolGen, Inc., priority 2001, dated 2009).
# B1: A11: random chimeric ZFP from the library (protein)
# chain: MVYPYDVPDYAELPPKKKRKVGIRIPGEKPFQCKTCQRKFSRSDHLKTHTRTHTGEKPYVCSKCGKAFTQSSNLTVHQKIHTGEKPYECHDCGKSFRQSTHLTRHRRIHTGEKPYKCHQCGKAFIQSFNLRRHERTHTGEKAAAKFVSVTFEDVAVLFTRDEWKKLDLSQRSLYREVMLENYSNLASMAGFLFTKPKVISLLQQGEDPW
# modifications: plasmid sequence
# notes: random chimeric ZFP from the library
# B2: D10: random chimeric ZFP from the library (protein)
# chain: MVYPYDVPDYAELPPKKKRKVGIRIPGEKPYECDHCGKSFSQSSHLNVHKRTHTGEKPYRCEECGKAFRWPSNLTRHKRIHTGEKPYRCEECGKAFRWPSNLTRHKRIHTGEKPFACPECPKRFMRSDNLTQHIKTHTGEKAAAKFVSVTFEDVAVLFTRDEWKKLDLSQRSLYREVMLENYSNLASMAGFLFTKPKVISLLQQGEDPW
# modifications: plasmid sequence
# notes: as for B1
# B3: D01: random chimeric ZFP from the library (protein)
# chain: MVYPYDVPDYAELPPKKKRKVGIRIPGEKPYECDHCGKSFSQSSHLNVHKRTHTGEKPYMCSECGRGFSQKSNLIIHQRTHTGEKPYECHDCGKSFRQSTHLTRHRRIHTGEKPYKCKQCGKAFGCPSNLRRHGRTHTGEKAAAKFVSVTFEDVAVLFTRDEWKKLDLSQRSLYREVMLENYSNLASMAGFLFTKPKVISLLQQGEDPW
# modifications: plasmid sequence
# notes: as for B1
# B4: F02: random chimeric ZFP from the library (protein)
# chain: MVYPYDVPDYAELPPKKKRKVGIRIPGEKPYSCGICGKSFSDSSAKRRHCILHTGEKPYVCDVEGCTWKFARSDKLNRHKKRHTGEKPYVCDVEGCTWKFARSDELNRHKKRHTGEKPYECHDCGKSFRQSTHLTRHRRIHTGEKAAAKFVSVTFEDVAVLFTRDEWKKLDLSQRSLYREVMLENYSNLASMAGFLFTKPKVISLLQQGEDPW
# modifications: plasmid sequence
# notes: as for B1
# Test system: SV40-SEAP reporter (pSEAP2-control)
# Test: SEAP assay, SV40-SEAP reporter in 293 cells
# Type: cell-based, human
# Settings: SEAP reporter activity, three days after transfection
# Method: Human embryonic kidney 293 cells were cultured with 100 μl of DMEM with 10% of FBS in a humidified atmosphere containing 95% air and 5% CO2 and seeded in wells of a 96 well plates 1 day ahead of transfection. The plasmids were isolated from individual colonies of each library separately and transfected into 293 cells LIPOFECTAMINE PLUS™ (Invitrogen) as recommended by the manufacturer. For MTT assay, 50 ng of plasmids containing zinc finger protein gene fused to the functional domains were transfected into cells cultured at 5·10^3 cells/well. For the SEAP assay, 10 ng of pSEAP2-control (Clontech) plasmid was co-transfected with 50 ng of plasmids containing zinc finger protein gene fused to the functional domains into cells cultured at 1·10^4 cells/well. The transfected cells were incubated at 37° C. for three days before assays.
# Three days after transfection, medium was transferred to the new tubes and heated for 30 minutes at 65° C. to inactivate the endogenous alkaline phosphatase. 25 μl of medium was mixed with the same volume of 2×SEAP assay buffer (2 M Diethanolamine (pH 9.8) 10 ml, 1 M MgCl2 10 μl, 1 M homoarginine 200 μl, pNitro phenyl phosphate 44.52 mg). Absorbance at 405 nm was measured after the indicated incubation times at 37° C.
# We tested whether library nucleic acids could alter expression of a heterologous nucleic acid. SEAP (secretory alkaline phosphatase) was used as a reporter protein to test whether a ZFP can affect amount of foreign protein produced intracellularly.
row,Molecule,Absorbance (405 nm)
1,B1,0.15
2,B2,0.15
3,B3,0.17
4,B4,0.13
